# Test results: the BET-seq Pho4 binding data (Le et al. 2018)
# This is one part of the list. These are noisy estimates, calculated here from bound and input reads.
# Biological target: T1, Pho4 (S. cerevisiae) (UniProt P07270)
# T1 sequence: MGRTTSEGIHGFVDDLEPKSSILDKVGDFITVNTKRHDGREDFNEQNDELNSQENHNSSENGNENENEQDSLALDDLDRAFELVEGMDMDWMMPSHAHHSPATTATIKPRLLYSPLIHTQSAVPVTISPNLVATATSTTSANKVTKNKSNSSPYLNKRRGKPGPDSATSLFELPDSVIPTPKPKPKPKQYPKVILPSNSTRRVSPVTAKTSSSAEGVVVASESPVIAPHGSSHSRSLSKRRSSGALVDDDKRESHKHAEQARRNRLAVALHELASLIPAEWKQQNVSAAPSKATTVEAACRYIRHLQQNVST
# Assay: relative binding free energy (BET-seq); higher = weaker binding
# Settings: reference: library average
row,Sequence,relative binding free energy
1,GCGAACACGTGGGGGG,-0.15 kcal/mol
2,TTATTCACGTGATGCA,0.26 kcal/mol
3,ATTAGCACGTGGTGTA,-0.1 kcal/mol
4,ATTTACACGTGGAATG,-0.07 kcal/mol
5,AGGCTCACGTGAAGTG,0.31 kcal/mol
6,AGTGGCACGTGAGCTT,0.09 kcal/mol
7,GGTGACACGTGGGGTT,-0.04 kcal/mol
8,GTGGCCACGTGGGTGT,-0.09 kcal/mol
9,TTTAACACGTGTAAGG,0.12 kcal/mol
10,ACGTTCACGTGTAGGA,0.35 kcal/mol
11,ACGGCCACGTGGGTTG,-0.2 kcal/mol
12,CTTTCCACGTGTGTTT,-0.01 kcal/mol
13,CTGTGCACGTGTTGGA,-0.02 kcal/mol
14,AGGTACACGTGGCGTT,0.06 kcal/mol
15,TTGGACACGTGGTGGT,0 kcal/mol
16,CGCGGCACGTGGTATG,-0.14 kcal/mol
17,TTTGCCACGTGAGGGA,0.14 kcal/mol
18,TTTGGCACGTGAAGAG,0.08 kcal/mol
19,ATTTGCACGTGAGAAG,0.04 kcal/mol
20,AAGGTCACGTGGGTGC,-0.04 kcal/mol
21,TATTACACGTGCGTGG,0.07 kcal/mol
22,GGGTTCACGTGATGTC,0.43 kcal/mol
23,TTAATCACGTGTAATG,0.1 kcal/mol
24,GTATTCACGTGGAGAT,0.36 kcal/mol
25,AGATTCACGTGGATTA,0.31 kcal/mol
26,GGGCTCACGTGTAGGT,0.2 kcal/mol

row,Sequence,relative binding free energy
1,TATTCCACGTGGTCGG,0.04 kcal/mol
2,GTTTGCACGTGAAGTT,0.32 kcal/mol
3,CTTTGCACGTGGGCTT,-0.19 kcal/mol
4,TTTATCACGTGCGCTG,0.11 kcal/mol
5,TACAGCACGTGGGTTA,-0.18 kcal/mol
6,AATTCCACGTGGTAGG,-0.06 kcal/mol
7,TGTGTCACGTGGTGAT,0 kcal/mol
8,TTCTTCACGTGGCGTA,0.29 kcal/mol
9,TGGGCCACGTGGCGCT,-0.09 kcal/mol
10,TTAGTCACGTGGGCTG,-0.13 kcal/mol
11,GTACGCACGTGGCGGG,-0.2 kcal/mol
12,GAGTGCACGTGTAAGG,0.06 kcal/mol
13,AGGAACACGTGTTTAT,-0.1 kcal/mol
14,GATTCCACGTGATGGG,0.26 kcal/mol
15,GTCTGCACGTGGACGT,0.07 kcal/mol
16,AGGTGCACGTGGGTGC,-0.21 kcal/mol
17,TTGTCCACGTGTTTAT,0.01 kcal/mol
18,CGGTTCACGTGTGGGC,0.25 kcal/mol
19,CGGGTCACGTGGTTTC,0.12 kcal/mol
20,TGGGACACGTGATTCT,0.13 kcal/mol
21,CGTTACACGTGAAGGT,0.28 kcal/mol
22,CGTGTCACGTGGGAAA,0.06 kcal/mol
23,GGGGTCACGTGAGTGT,0.42 kcal/mol
24,GGGTTCACGTGGAGGA,0.3 kcal/mol
25,TTTCCCACGTGTGGTG,-0.07 kcal/mol
26,CGGTACACGTGGGAGT,-0.04 kcal/mol

row,Sequence,relative binding free energy
1,GTTGGCACGTGAGCGA,0 kcal/mol
2,GAAGACACGTGATTGG,0.22 kcal/mol
3,GTTTTCACGTGGGCCT,0.42 kcal/mol
4,CTGTGCACGTGTAGAG,0.08 kcal/mol
5,GGGAGCACGTGAGTTG,0.18 kcal/mol
6,TTGATCACGTGTTAAA,0.24 kcal/mol
7,TGGCACACGTGTGGGC,0.09 kcal/mol
8,GGTGGCACGTGCGCTA,-0.18 kcal/mol
9,AGGTGCACGTGGATGA,-0.06 kcal/mol
10,TTAATCACGTGGGATA,-0.02 kcal/mol
11,ATCTTCACGTGTATTT,0.17 kcal/mol
12,CGTTTCACGTGAAGGG,0.28 kcal/mol
13,GAGTCCACGTGTCGGT,0.26 kcal/mol
14,AAGTGCACGTGCGGGA,-0.09 kcal/mol
15,GTTATCACGTGGGCTT,0.05 kcal/mol
16,CGTGTCACGTGGGGGA,-0.11 kcal/mol
17,TTGGACACGTGTGGCC,0.12 kcal/mol
18,TCGTGCACGTGGTTGA,-0.11 kcal/mol
19,CTGGTCACGTGGCTTG,0.01 kcal/mol
20,GGATGCACGTGAGGTC,0.2 kcal/mol
21,ATATACACGTGTAATT,-0.07 kcal/mol
22,AAATGCACGTGGATGT,-0.13 kcal/mol
23,CATGGCACGTGAGTGG,0.08 kcal/mol
24,ATAGGCACGTGTGAGG,-0.07 kcal/mol
25,TATCCCACGTGTTTTT,0.02 kcal/mol
26,TCGCGCACGTGTTGTT,-0.18 kcal/mol

row,Sequence,relative binding free energy
1,TAGTTCACGTGGCTGA,0.19 kcal/mol
2,AGGTCCACGTGTAGGA,0.11 kcal/mol
3,AGGTGCACGTGATGTC,0.04 kcal/mol
4,CCTGTCACGTGAGGTG,0.3 kcal/mol
5,TGCGCCACGTGTAGGG,-0.01 kcal/mol
6,GTGTACACGTGGGAAT,0.07 kcal/mol
7,ACTTTCACGTGGGGGG,0.13 kcal/mol
8,AGTAACACGTGGGTGA,-0.23 kcal/mol
9,GTATGCACGTGGCGTG,-0.16 kcal/mol
10,TGAGGCACGTGCGTTG,-0.22 kcal/mol
11,TTAATCACGTGGGATT,0.11 kcal/mol
12,ATGTACACGTGCATGG,-0.04 kcal/mol
13,ACTGGCACGTGTTATT,-0.07 kcal/mol
14,ACGGGCACGTGAGGGT,0.04 kcal/mol
15,ATACGCACGTGTTATT,0.09 kcal/mol
16,TCGTTCACGTGAGTTT,0.53 kcal/mol
17,CAGATCACGTGTTGGG,0.16 kcal/mol
18,TGAATCACGTGCTGGT,-0.03 kcal/mol
19,TTCGTCACGTGCGGGC,0.12 kcal/mol
20,GTTTTCACGTGTCAAA,0.41 kcal/mol
21,CGTGCCACGTGAGTGT,0.07 kcal/mol
22,GGTCTCACGTGTTAAT,0.29 kcal/mol
23,TAGCGCACGTGGCTGG,-0.21 kcal/mol
24,TTTCGCACGTGTTAAA,-0.03 kcal/mol
25,TCGTTCACGTGATTGT,0.39 kcal/mol
26,GGGGACACGTGGAGTA,0.06 kcal/mol

row,Sequence,relative binding free energy
1,TTGGTCACGTGGCTGA,0.04 kcal/mol
2,TGACGCACGTGGTTGC,-0.05 kcal/mol
3,GGATGCACGTGGGCGA,-0.17 kcal/mol
4,ATTGTCACGTGAAGCG,0.29 kcal/mol
5,GGGAACACGTGTTGGA,0.16 kcal/mol
6,GATGTCACGTGCGGAG,0.05 kcal/mol
7,TGGCTCACGTGAGTCT,0.41 kcal/mol
8,ATTGGCACGTGGTGCT,-0.17 kcal/mol
9,AGATTCACGTGAGATA,0.42 kcal/mol
10,TCATGCACGTGGGGGA,-0.12 kcal/mol
11,GGATGCACGTGGGTGC,-0.06 kcal/mol
12,TTTTGCACGTGTTAGC,0.03 kcal/mol
13,CGTGTCACGTGTGACG,0.03 kcal/mol
14,GTGTGCACGTGAGTAT,0.28 kcal/mol
15,TTTGACACGTGATGAT,0.15 kcal/mol
16,CTGTTCACGTGGGTGC,0.21 kcal/mol
17,GCGCGCACGTGGAGGG,-0.23 kcal/mol
18,TAATTCACGTGGGTAA,0.01 kcal/mol
19,ATTGCCACGTGGTTAT,-0.09 kcal/mol
20,GGGTACACGTGGAGGG,-0.01 kcal/mol
21,CTAGGCACGTGTAATT,0.15 kcal/mol
22,TATTTCACGTGTTGTC,0.27 kcal/mol
23,CGTGTCACGTGTACGT,0.07 kcal/mol
24,TATTTCACGTGGGGGG,0.15 kcal/mol
25,TTTTTCACGTGTGAGT,0.33 kcal/mol
26,TGGATCACGTGCGATT,0.14 kcal/mol

row,Sequence,relative binding free energy
1,AGTGACACGTGGTTGA,-0.04 kcal/mol
2,TTGCACACGTGAATGG,0.29 kcal/mol
3,TGAGTCACGTGCAAGG,0.07 kcal/mol
4,TGACTCACGTGGGTAT,0.14 kcal/mol
5,AAGAGCACGTGGTCGG,-0.33 kcal/mol
6,CTTTTCACGTGGGTTT,0.27 kcal/mol
7,TTTTACACGTGTTGCT,0.09 kcal/mol
8,CTGACCACGTGGGGGT,-0.29 kcal/mol
9,TTTGGCACGTGGACCT,-0.11 kcal/mol
10,CGTGTCACGTGACGGG,0.12 kcal/mol
11,AGTAACACGTGGGCGG,-0.16 kcal/mol
12,TATTCCACGTGTGGTG,-0.02 kcal/mol
13,ATTTGCACGTGGACTG,-0.03 kcal/mol
14,TGATACACGTGGTGAA,-0.03 kcal/mol
15,GACGGCACGTGCGGTG,-0.09 kcal/mol
16,AGCTGCACGTGTTGAG,-0.06 kcal/mol
17,GATTGCACGTGAATGG,0.27 kcal/mol
18,ATGAACACGTGGCGTG,-0.18 kcal/mol
19,GCTGTCACGTGGGGAG,0.03 kcal/mol
20,GTTTGCACGTGCAAGG,0.12 kcal/mol
21,GTGTACACGTGGGGAG,0.05 kcal/mol
22,CTGGGCACGTGAAGGG,0.1 kcal/mol
23,ATTGTCACGTGAGGTA,0.26 kcal/mol
24,ATGGGCACGTGCTTGG,-0.15 kcal/mol
25,TATAGCACGTGTTGAG,-0.11 kcal/mol
26,GACTGCACGTGAGGTT,0.2 kcal/mol

row,Sequence,relative binding free energy
1,AGTATCACGTGTTTGA,0.06 kcal/mol
2,TTTGTCACGTGTATTC,0.16 kcal/mol
3,CACGTCACGTGGTGTG,-0.1 kcal/mol
4,GCGAACACGTGGTGTT,0.07 kcal/mol
5,ATTGCCACGTGTAGTG,-0.16 kcal/mol
6,TTGATCACGTGGAGTC,0.22 kcal/mol
7,TTAGGCACGTGATTGA,0.07 kcal/mol
8,GGGGTCACGTGCCCGG,0.13 kcal/mol
9,GGATACACGTGTACGT,0.04 kcal/mol
10,AGAGACACGTGGGTTA,-0.12 kcal/mol
11,TAATTCACGTGATATG,0.3 kcal/mol
12,CTATTCACGTGGTTAT,0.23 kcal/mol
13,CTTTACACGTGTGGGA,0.07 kcal/mol
14,TTGTTCACGTGCGGCG,0.19 kcal/mol
15,ATTGTCACGTGGAGCT,-0.07 kcal/mol
16,ATAAGCACGTGGTTTA,-0.25 kcal/mol
17,AGAGTCACGTGCAGCG,0.18 kcal/mol
18,AGTCTCACGTGGAATT,0.46 kcal/mol
19,TTTTGCACGTGCGCAT,-0.15 kcal/mol
20,GGGCGCACGTGTGTGG,0.05 kcal/mol
21,TGTGCCACGTGGCGTG,-0.13 kcal/mol
22,TGGATCACGTGAATGC,0.34 kcal/mol
23,TGTTACACGTGCGTTA,0.04 kcal/mol
24,TGAGGCACGTGTTTAA,-0.08 kcal/mol
25,TTGATCACGTGGAAGT,0.24 kcal/mol
26,CGGTTCACGTGGGTCT,0.13 kcal/mol

row,Sequence,relative binding free energy
1,TTAATCACGTGATCGG,0.21 kcal/mol
2,TTAACCACGTGAGGGG,0.2 kcal/mol
3,CGAGGCACGTGGTGAT,-0.27 kcal/mol
4,TTGTGCACGTGTTGTC,0.03 kcal/mol
5,TTGCGCACGTGTTTGT,-0.2 kcal/mol
6,AGCGGCACGTGGTAGA,-0.13 kcal/mol
7,GTGGGCACGTGGCCTG,-0.13 kcal/mol
8,TTAGACACGTGAGCGG,0.23 kcal/mol
9,CGGGTCACGTGTTAGT,0.15 kcal/mol
10,GGGCTCACGTGGCGAG,0.16 kcal/mol
11,TCGATCACGTGTTTGC,0.37 kcal/mol
12,TGGTACACGTGAAAGG,0.32 kcal/mol
13,CTGGGCACGTGTGGGT,-0.09 kcal/mol
14,TAGTACACGTGACTGG,0.18 kcal/mol
15,CTGGTCACGTGGCAGG,0.12 kcal/mol
16,CCGTGCACGTGCGGGG,-0.06 kcal/mol
17,GATGACACGTGGTTGC,0.06 kcal/mol
18,TAGCGCACGTGAATGG,0.14 kcal/mol
19,CGTTGCACGTGCAAGT,0.17 kcal/mol
20,TATGGCACGTGGACAT,-0.06 kcal/mol
21,CATAGCACGTGAGGTA,0.14 kcal/mol
22,TTTTGCACGTGGGCAC,-0.18 kcal/mol
23,GCAAGCACGTGTGGGT,0.01 kcal/mol
24,TGGATCACGTGGATAT,0.08 kcal/mol
25,TTTAGCACGTGATATG,0.11 kcal/mol
26,CGTGGCACGTGGGTTT,-0.19 kcal/mol

row,Sequence,relative binding free energy
1,AAAAGCACGTGTTTAT,-0.03 kcal/mol
2,GAGTTCACGTGTATAG,0.34 kcal/mol
3,CTGTGCACGTGGGCGT,-0.21 kcal/mol
4,GGTGTCACGTGAGTGG,0.29 kcal/mol
5,ACGGACACGTGGGGCT,-0.08 kcal/mol
6,CGATACACGTGTGGGT,0.02 kcal/mol
7,GGGAACACGTGTTTAT,0.06 kcal/mol
8,TTTCACACGTGATTGG,0.09 kcal/mol
9,AATTTCACGTGCGGGG,0.06 kcal/mol
10,GACAGCACGTGGTGAG,-0.02 kcal/mol
11,GAAGTCACGTGGTGGC,0.13 kcal/mol
12,CTGGTCACGTGGTTGG,0.07 kcal/mol
13,GGTGGCACGTGATGCC,0.12 kcal/mol
14,CAAGTCACGTGTGGGG,0.2 kcal/mol
15,GGGGTCACGTGGATCT,0.22 kcal/mol
16,TTTAACACGTGTAGGC,0.23 kcal/mol
17,TTAAACACGTGTGTTC,0 kcal/mol
18,ATTGGCACGTGGATGG,-0.08 kcal/mol
19,GAGTGCACGTGAGATA,0.3 kcal/mol
20,AAAAGCACGTGAGTGG,0.14 kcal/mol
21,TATGTCACGTGTACTG,0.12 kcal/mol
22,GGGTACACGTGTGGCA,0.07 kcal/mol
